# Results taken from PubChem BioAssay AID686979 (National Center for Advancing Translational Sciences (NCATS), 2013).
# The campaign covered roughly 420,000 compounds. About 50,000 (12%) were called active. The inconclusive results got no clear call from the source; some entries with a clear call stand among them for comparison. Calls come from the whole dose curve; as a rule, active = well fitted inhibition curve with a large enough effect; inconclusive = small, poorly fitted or top-dose-only effect; inactive = flat fitted curve, though single readings scatter. Potencies of inconclusive entries are left out as doubtful fits.
# Test: qHTS for Inhibitors of human tyrosyl-DNA phosphodiesterase 1 (TDP1): qHTS in cells in presence of CPT; note: nearly all actives have a fitted effect of over 55% in size
# Details: chicken DT40 Tdp1-/-;hTDP1 cells + 20 nM CPT, ATP luminescence, 48 h; activity change, negative = growth inhibition: at 46.2 µM (top of the series)
# How it was run: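 Chicken DT40 Tdp1-/- cells complemented with human TDP1, 400 cells/well, exposed to compounds plus 20 nM camptothecin for at least 48 h at 37 C; viability read as ATP content by CellTiter-Glo luminescence.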
# % is set by controls: 0 for no effect and ±100 for the full control effect; potency is the fitted concentration of half-maximal effect; tags give direction and shape of the fitted curve.
Structure (SMILES),Potency,"activity change, negative = growth inhibition"
Cc1ccc(Cn2c(C)c(CNCCCc3ccccc3)c(C(=O)O)c2C)cc1,"inconclusive [inhibitor, single point]",–
O=C(O)c1cc([N+](=O)[O-])ccc1NCc1ccccc1,inactive,–
O=C(CCS(=O)(=O)c1ccc(Cl)cc1)Nc1nccs1,"inconclusive [inhibitor, single point]",–
CCCCCCc1ccc(N2C[C@H](C)[C@@H](CC(=O)NCc3ccccc3)C2=O)cc1,"inconclusive [inhibitor, single point]",–
COc1ccccc1CNC(=O)C1CCN(c2nc3ccccc3o2)CC1,–,inconclusive: -30.6% [inhibitor]
COCC(C)NC(=O)c1cc2c(ccc3ccccc32)oc1=O (configuration not stated),"inconclusive [inhibitor, single point]",–
O=C(CCCn1c(SCC(=O)c2ccc(F)cc2)nc2ccccc2c1=O)NCc1ccco1,"inconclusive [inhibitor, single point]",–
COc1ccc(OC)c(-n2nnnc2SCC(=O)Nc2cc(C)ccc2OC)c1,"inconclusive [inhibitor, single point]",–
CCCCCCCOc1ccc(OC(=O)c2ccncc2)cc1,active: 9.2 µM,–
CCN(CC)C(=O)CSc1nnc(-c2ccccn2)n1-c1ccccc1OC,inactive,–
c1ccc(-n2nnnc2Oc2ccc(-n3ccnc3)cc2)cc1,inactive,–
COc1ccc(/C=N/NC(=O)c2ccc3c(c2)OCCO3)c(OC)c1,inactive,–
CCCCNC(=O)/C(=C\c1ccc([N+](=O)[O-])o1)NC(=O)c1ccccc1,active: 16.4 µM,–
CC(Sc1nncn1-c1ccccc1)C(=O)Nc1cccc([N+](=O)[O-])c1 (configuration not stated),"inconclusive [inhibitor, single point]",–
CSc1ccc(S(=O)(=O)N2c3ccccc3CC2C)cc1 (configuration not stated),"inconclusive [inhibitor, single point]",–
CCCCNC(=O)CSc1nnc(C)c2c(C)n(-c3ccccc3)nc12,"inconclusive [inhibitor, single point]",–
Cc1nnc(SCC(=O)Nc2nsc(-c3ccc(C(C)(C)C)cc3)n2)s1,inactive,–
C=CCNc1nc2c(c(=O)[nH]c(=O)n2C)n1CCCc1ccccc1,inactive,–
CC1CCN(S(=O)(=O)c2ccc3c(c2)CCC(=O)N3CC(=O)Nc2cccc(C#N)c2)CC1,"inconclusive [inhibitor, single point]",–
CC(=O)NC(CC(=O)OCC(=O)c1ccc(NC(=O)CC(C)C)cc1)c1ccccc1 (configuration not stated),inactive,–
COc1cccc(Cn2c(=O)cnc3cnc(Nc4ccccc4)nc32)c1,"inconclusive [inhibitor, single point]",–
COc1cccc(NC(=O)NCC2CCN(Cc3ccc(F)cc3)CC2)c1,inactive,–
Cc1ccc(CNc2cccnc2)cc1,"inconclusive [inhibitor, single point]",–
CC(C)Cn1c(-c2ccc(C#N)cc2)nc2c1c(=O)[nH]c(=O)n2CC(C)C,"inconclusive [inhibitor, single point]",–

Structure (SMILES),Potency,"activity change, negative = growth inhibition"
CC(C)OCCCNc1ncnc2c1[nH]c1ccccc12,active: 8.91 µM,–
CCCN1CCC(NC(=S)Nc2ccc(S(N)(=O)=O)cc2)CC1,inactive,–
Cc1ccc(-c2cc3c(n2-c2ccc(C)cc2)CC(C)(C)CC3=O)cc1,inactive,–
CCC1CN(C(=O)N2CCC(C(=O)NCc3ccccc3C)CC2)c2ccccc2O1 (configuration not stated),active: 18.4 µM,–
Cc1ccc(-c2noc(CNC(=O)c3ccccc3)n2)cc1,"inconclusive [inhibitor, single point]",–
CCS(=O)(=O)c1ccc(C=NNc2nc3ccccc3o2)cc1,"inconclusive [inhibitor, single point]",–
COc1ccc(S(=O)(=O)Nc2cc3c4c(c2)CCN4C(=O)CC3)cc1,inactive,–
CCOC(=O)C1=C(COC(=O)/C=C/c2ccc(OC)cc2OC)NC(=O)NC1C (configuration not stated),"inconclusive [inhibitor, partial curve]",–
O=C(NCCCn1cccn1)c1cc(COc2ccccc2)on1,"inconclusive [inhibitor, single point]",–
O=C(NCc1ccccc1)c1ccc(CSc2nc3cccnc3n2Cc2ccccc2F)cc1,"inconclusive [inhibitor, single point]",–
N#CCCn1c(=O)c(CCc2ccccc2)nc2cnc(Oc3cccc(Cl)c3)nc21,"inconclusive [inhibitor, partial curve, poor fit]",–
COc1ccccc1NS(=O)(=O)c1ccc(C(=O)N2CCN(c3ccccc3)CC2)cc1,"inconclusive [inhibitor, single point]",–
Cc1cc(C(=O)N/N=C/c2sccc2C)no1,inactive,–
CCN(CC)CCCN(C(=O)c1ccccc1C)c1nc(-c2ccc(OC)cc2)cs1,"inconclusive [inhibitor, single point]",–
O=C(CSc1ccc2nnc(-c3ccccn3)n2n1)Nc1ccccc1,inactive,–
CC(=O)NCCn1c(SCc2ccc(C)cc2)nc2ccccc2c1=O,active: 23.1 µM,–
COc1cccc(-c2ccc3ncnc(N(C)Cc4ccco4)c3c2)c1,"inconclusive [inhibitor, partial curve, poor fit]",–
O=C(Nc1ccccc1)c1cc(S(=O)(=O)NCc2ccncc2)ccc1Cl,active: 9.2 µM,–
COc1ccc(/C=N/NC(=O)c2cccc(NC(C)=O)c2)c(OC)c1,inactive,–
O=C(CCN1CCN(S(=O)(=O)c2ccc(Br)cc2)CC1)Nc1ccccc1F,"inconclusive [inhibitor, single point]",–
CS(=O)(=O)c1ccc(-c2cccc3c2OC(CNC(=O)c2ccnc(Cl)c2)C3)cc1 (configuration not stated),"inconclusive [inhibitor, single point]",–
COc1cccc(C(=O)NN2CC(O)=C(c3nc4ccccc4s3)C2=N)c1,"inconclusive [inhibitor, single point]",–
COc1ccc(COCC(O)CN(Cc2ccco2)Cc2ccccc2O)cc1 (configuration not stated),"inconclusive [inhibitor, single point]",–
